# According to PubChem BioAssay AID602233 (National Center for Advancing Translational Sciences (NCATS), 2012):
# In all, about 380,000 compounds went through this assay and about 170 (0.045%) were called active. This list was built around the results that the source calls inconclusive (neither active nor inactive); the mix of calls is not that of the screen. The call rests on the fitted dose curve; in most records, active means well fitted inhibition curve with a large enough effect; inconclusive means small, poorly fitted or top-dose-only effect; inactive means no such curve, though single readings can be large or run the other way. No potency is given beside an inconclusive call; the fits are too rough. More than one record can exist for a structure, and the calls need not agree.
# Target: Phosphoglycerate kinase, glycosomal (Trypanosoma brucei brucei) (UniProt P07378)
# Test: qHTS Assay to Find Inhibitors of Phosphoglycerate Kinase; further: nearly all actives have a fitted effect of over 60% in size
# Details: PGK/GAPDH coupled, Kinase-Glo luminescence, 60 min; series mostly up to 57.5 µM; activity change, negative = inhibition: at the top concentration
# In short: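 Recombinant glycosomal PGK reaction used 1,3-bisphosphoglycerate generated in-well by GAPDH (100nM final) in 100mM TEA pH 7.6, 5mM MgCl2, 0.01% Tween-20. After 60 minutes at room temperature, ATP was read by Kinase-Glo Plus luminescence end-point.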
# On the % scale 0 is the no-effect control and ±100 the full control effect; potency means the concentration at half of the fitted maximal effect; tags describe the fitted curve by direction and shape.
Compound,Potency,"activity change, negative = inhibition",outcome
Cc1ccc(-n2c(SCC(=O)O)nc3c(sc(=S)n3-c3ccc(C)c(C)c3)c2=O)cc1,"inconclusive [inhibitor, partial curve, poor fit]",–,–
O=C(/C=C/c1ccco1)OCC(=O)N1CCCCC1,–,inactive: -2.51%,–
CCCCCc1nnc(NC(=O)Cc2cccs2)s1,"inconclusive [inhibitor, single point]",–,–
Cc1ccc(C(=O)O)cc1NC(=S)NC(=O)c1ccc(-c2ccc(Cl)cc2)o1,–,inactive: -5.24%,–
S=C(Nc1cccc(Cl)c1)N(CCCN1CCCC1)Cc1cccn1Cc1ccc(Cl)cc1,–,–,inactive
Cc1cc(Br)ccc1SCC(=O)OCC(=O)NCc1ccco1,"inconclusive [inhibitor, partial curve, poor fit]",–,–
CCn1c(SCC(=O)Nc2sccc2C(N)=O)nnc1C1CC1,–,inactive: 2.81%,–
O=C(CSCc1nc2c(nnn2Cc2ccc(F)cc2)c(=O)[nH]1)Nc1c(Cl)cc(Cl)cc1Cl,"inconclusive [inhibitor, partial curve]",–,–
CCN1CCN(Cc2ccc(NC(=O)c3ccc(C)c(NC(=O)N4CCNC4=O)c3)cc2C(F)(F)F)CC1,active: 25.1 µM,–,–
Cn1c(SCC(=O)Nc2cccc(C(=O)O)c2)nnc1-c1cc2cc(Br)ccc2o1,"inconclusive [inhibitor, single point]",–,–
COc1ccc(/C=C2\C(=O)NC(=S)N2C(=O)c2ccc(C)cc2)cc1,"inconclusive [inhibitor, single point]",–,–
COc1cc(/C=C2\SC(=O)N(c3cccc(Cl)c3)C2=O)cc([N+](=O)[O-])c1O,"inconclusive [inhibitor, full curve, poor fit]",–,–
COc1ccc(C2CC(=O)N3CN(Cc4ccco4)CSC3=C2C#N)cc1 (centres undefined),–,inactive: -10.5%,–
COc1cc(/C=N/N2C(=O)CSC2=S)cc(Br)c1O,"inconclusive [inhibitor, single point]",–,–
CCNC(=S)N1CCC(C(O)(c2ccccc2)c2ccccc2)CC1,–,inactive: 4.36%,–
CCOC(=O)Cc1ccc2sc(-c3ccccc3)nc2c1,"inconclusive [inhibitor, single point]",–,–
N[C@@H](Cc1ccc(O)c(O)c1)C(=O)O,active: 22.4 µM,–,–
O=C1NN(c2ccccc2)C(=O)/C1=C\c1ccc(-c2cc([N+](=O)[O-])ccc2O)o1,"inconclusive [inhibitor, partial curve]",–,–
NS(=O)(=O)c1cccc(NC(=O)c2ccc3nc[nH]c3c2)c1,"inconclusive [inhibitor, partial curve, poor fit]",–,–
CSc1ccc(C2C(C#N)=C(N)Oc3c2ccc(=O)c2c(C)oc(C)c32)cc1 (centres undefined),–,inactive: -8.2%,–
COc1ccc(NC(=O)CN2CCN(CC(=O)Nc3ccccc3Cl)CC2)cc1Cl,–,inactive: -3.57%,–
N#CCn1cnc2sc(-c3ccccc3)cc2c1=O,–,inactive: -0.355%,–
NC(=O)c1ccsc1NC(=O)COC(=O)c1ccccn1,–,–,inactive

Compound,Potency,"activity change, negative = inhibition",outcome
CCOC(=O)c1c(NC(=O)CSc2cn(CCNC(=O)c3ccc(OC)c(OC)c3)c3ccccc23)sc2c1CCC2,–,inactive: -7.88%,–
Cn1nnnc1SCC1=C(C(=O)O)N2C(=O)C(NC(=O)Cn3nc(C(F)F)cc3C3CC3)C2SC1 (centres undefined),–,inactive: -27.2%,–
COc1cccc(/C=N/NC(=O)c2ccoc2C)c1O,"inconclusive [inhibitor, partial curve]",–,–
CCOC(=O)c1ccccc1NC(=O)COC(=O)CC1CCCCC1,–,inactive: -5.74%,–
Nc1nc(Nc2cccc(F)c2)nc(NCCO)c1[N+](=O)[O-],–,inactive: -11.1%,–
O=C(COC(=O)/C=C/c1ccco1)Nc1cc(S(=O)(=O)N2CCOCC2)ccc1Cl,"inconclusive [inhibitor, partial curve]",–,–
CCOC(=O)C1CCCN(C(=O)c2ccc(CNc3c(N4CCC(C)CC4)c(=O)c3=O)cc2)C1 (centres undefined),"inconclusive [inhibitor, single point]",–,–
O=C(N/N=C/c1ccc2c(c1)OCO2)c1ccccn1,"inconclusive [inhibitor, partial curve]",–,–
COc1cc(NC(=O)c2noc3c2CCC3)c(OC)cc1Cl,"inconclusive [inhibitor, partial curve, poor fit]",–,–
Cc1ccc2c(c1)Cc1nc3ccccc3nc1-2,"inconclusive [inhibitor, partial curve, poor fit]",–,–
COc1ccc(C(=O)O/N=C(/C)c2cccs2)cc1,"inconclusive [inhibitor, partial curve, poor fit]",–,–
CCOC(=O)CC(NS(=O)(=O)c1ccc2[nH]cc(C(=O)O)c(=O)c2c1)c1ccc(OCC)c(OC)c1 (centres undefined),"inconclusive [inhibitor, partial curve, poor fit]",–,–
Fc1ccc(-c2nnc(NC3=NCCCCC3)o2)cc1,"inconclusive [inhibitor, partial curve, poor fit]",–,–
CCCCNS(=O)(=O)c1ccc2nc(NC(=O)c3cccnc3)sc2c1,"inconclusive [inhibitor, partial curve]",–,–
O=C(CC1CCCC1)Nc1ccc(Cl)c(S(=O)(=O)N2CCOCC2)c1,"inconclusive [inhibitor, single point]",–,–
O=C(O)c1cccc(-c2ccc(/C=c3/sc4nc5ccccc5n4c3=O)o2)c1,"inconclusive [inhibitor, full curve, poor fit]",–,–
Cc1ccc(-c2onc(C)c2C)cc1S(=O)(=O)NCc1ccco1,–,inactive: -2.26%,–
COC(=O)c1sccc1NC(=O)c1ccc(C#N)cc1,–,inactive: -13%,–
CC1=NN(c2cc(Cl)c(S(=O)(=O)O)cc2Cl)C(=O)C1,"inconclusive [inhibitor, partial curve, poor fit]",–,–
CCOc1cc(/C=C2/C(=O)ON=C2C)ccc1OCc1ccccc1F,–,inactive: -3.82%,–
COC(=O)C1=C(N)c2c(F)cccc2C1(C#N)c1ccccc1 (centres undefined),–,inactive: -4.87%,–
CN(C)S(=O)(=O)c1cccc(C(=O)OCC(=O)c2c(N)n(C)c(=O)n(C)c2=O)c1,–,inactive: -5.02%,–
CN1CCN(C2=C(Cl)C(=O)c3ccccc3C2=O)CC1,"inconclusive [inhibitor, single point]",–,–

Compound,Potency,"activity change, negative = inhibition",outcome
COc1cccc(C2=CC(c3cccc(OC)c3OC(F)F)n3nnnc3N2)c1 (centres undefined),"inconclusive [inhibitor, single point]",–,–
CC(C)(C)OC(=O)C[C@H]1C/C=C\C[C@H](CC(=O)N[C@@H](CO)Cc2ccccc2)C(=O)N[C@H](C(C)(C)C)COC1=O,"inconclusive [inhibitor, single point]",–,–
O=C(N/N=C/C(Cl)=C/c1ccc([N+](=O)[O-])cc1)C(=O)Nc1cccc(C(=O)O)c1,"inconclusive [inhibitor, single point]",–,–
O=C(Cn1cnc2scc(-c3cccc([N+](=O)[O-])c3)c2c1=O)NCc1ccco1,"inconclusive [inhibitor, single point]",–,–
CCOC(=O)Cc1nn(CC)c(=O)c2ccccc12,–,inactive: -10.4%,–
CCOc1ccc(C(=O)Nc2cc(-c3nc4ccccc4[nH]3)ccc2C)cc1[N+](=O)[O-],–,inactive: 4.03%,–
N/C(=N\OCc1ccc([N+](=O)[O-])cc1)c1ccccn1,"inconclusive [inhibitor, single point]",–,–
C/C(=N/N=C/c1ccc(N(C)C)cc1)c1ccccc1,"inconclusive [inhibitor, partial curve, poor fit]",–,–
CC1=N/C(=C/c2ccco2)C(=O)O1,"inconclusive [inhibitor, partial curve, poor fit]",–,–
CCN(CC)C(=O)C1CCCN(c2ncnc3onc(C)c23)C1 (centres undefined),"inconclusive [inhibitor, single point]",–,–
O=C(OCC1OC(n2cnc3c(N(C(=O)c4ccccc4)C(=O)c4ccccc4)ncnc32)C(O)C1F)c1ccccc1 (centres undefined),–,–,inactive
O=C(NN1C(=O)/C(=C/C=C/c2ccccc2)SC1=S)c1ccncc1,–,inactive: -8.92%,–
CC(=O)Nc1ccc(C=NNc2ccc([N+](=O)[O-])cc2S(=O)(=O)Nc2ccccc2C(=O)O)cc1,"inconclusive [inhibitor, single point]",–,–
COc1ccc(C2c3[nH]c4ccccc4c3C[C@H]3C(=O)N(C4CCN(Cc5ccccc5)CC4)CC(=O)N23)cc1OC (some centres undefined),–,–,inactive
CC(=O)Oc1ccc(/C=C2/CCc3ccccc3C2=O)cc1,"inconclusive [inhibitor, partial curve, poor fit]",–,–
COc1ccc(NC(=O)COCc2cc(-c3ccco3)on2)cc1Cl,–,inactive: 6.2%,–
CC(Sc1ccccc1)C(=O)NCC(c1ccco1)N1CCCCC1 (centres undefined),"inconclusive [inhibitor, single point]",–,–
Cc1ccc(S(=O)(=O)/N=C2\C=C(NS(=O)(=O)c3ccccc3)C(=O)c3ccccc32)c(C)c1,–,inactive: -5.91%,–
NS(=O)(=O)c1cccc(NC(=O)CSc2ncc(C(F)(F)F)cc2Cl)c1,"inconclusive [inhibitor, single point]",–,–
COc1ccccc1NC(=O)CSc1nnc(C)n1CCc1ccccc1,"inconclusive [inhibitor, single point]",–,–
O=C(N/N=C/C(Cl)=C/c1ccc([N+](=O)[O-])cc1)C(=O)Nc1ccccc1C(=O)O,"inconclusive [inhibitor, partial curve, poor fit]",–,–
Cc1ccc(C)c(S(=O)(=O)Nc2ccc3oc(C)c(C(=O)O)c3c2)c1,"inconclusive [inhibitor, partial curve, poor fit]",–,–
N/C(=N\OC(=O)c1ccccc1)c1ccccn1,"inconclusive [inhibitor, partial curve, poor fit]",–,–
